Measurements from PubChem BioAssay (NCI).
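Assay format: 96-well plates, 48-hour exposure. GI50 marks 50% less growth. The concentration for full growth arrest is given as TGI.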

Test system: NCI-H322M lung
Test: NCI-60 cell line screen, 48 h

| Compound | TGI [µM] | GI50 [nM] |
| --- | --- | --- |
| Cc1ccc(C(N)=Nc2ccccc2)cc1 | > 100 | – |
| N#CC(C#N)N=Nc1ccc(-c2nc3ccccc3[nH]2)cc1 | > 100 | – |
| CCCCCCCCCCCCCCCCCCNc1ccn(C2OC(CO)C(OP(=O)(O)OCC(COP(=O)(O)OCC3OC(n4cc(F)c(NCCCCCCCCCCCCCCCCCC)nc4=O)CC3O)OC(=O)CCCCCCCCCCCCCCC)C2O)c(=O)n1 (stereo unspecified) | > 100 | – |
| C[C@]12C=CC(=O)C=C1[C@@H](F)C[C@H]1[C@@H]3CC[C@](O)(C(=O)CO)[C@@]3(C)C[C@H](O)[C@@]12F | > 100 | – |
| COc1ccc2c(-c3ccc(OCCN(C)C)cc3)c(Oc3ccccc3)c(=O)oc2c1 | 14.3 | – |
| COc1cc(C2C3=C(COC3=O)Oc3cc4c(cc32)OCO4)cc(OC)c1OC (stereo unspecified) | 21.3 | < 19.8 |
| Cc1ccc(NC(=O)C(=O)C(C2C(C)CC(=O)C2CC(=O)O)[N+](=O)[O-])cc1 (stereo unspecified) | > 100 | – |
| CC(=O)N(C)c1ccc2ncccc2c1[N+](=O)[O-] | > 100 | – |
| O=C1Cc2c([nH]c3ccc([N+](=O)[O-])cc23)-c2ccccc2N1 | 9.37 | – |
| CCCOP1(=O)C=CC(Cl)=C(C)C1 (stereo unspecified) | > 100 | – |
| Clc1ccc(Nc2nn3c(CCCCCCCCc4nnc5sc(Nc6ccc(Cl)cc6)nn45)nnc3s2)cc1 | > 100 | – |
| CCCCN(C(=O)c1ccccc1)C1CCC(=O)c2[nH]c3ccccc3c21 (stereo unspecified) | > 100 | – |
| Cc1cc(C)c(C#N)c(SCC(=O)c2sc3c(C#N)c(C)cc(C)[n+]3c2[O-])n1 | > 100 | 798 |
| CCc1c2c(nc3ccc(OC(=O)NCc4ccc(B5OC(C)(C)C(C)(C)O5)cc4)cc13)-c1cc3c(c(=O)n1C2)COC(=O)[C@]3(O)CC | 7.05 | 113 |
| Oc1ccccc1N=Cc1c(O)ccc2ccccc12 | 45.5 | 13600 |
| CCCCCc1cc2cc3c(c(O)c2c(=O)[nH]1)C1(CC3)C(O)=c2c(=O)c3c(=O)cc(OC)c(=O)c=3c(=O)c2=C1O (stereo unspecified) | 6.07 | – |
| N#Cc1ccc(Oc2nc3ccccc3nc2C(=O)O)cc1 | > 100 | – |
| N#CC(/C(=N/N=C(N)N)C(=O)Nc1ccccc1[N+](=O)[O-])c1nc(-c2ccc([N+](=O)[O-])cc2)cs1 (stereo unspecified) | > 100 | – |
| CC#CC(OCC)(OCC)OCC | > 100 | – |
| Cc1ccc(Nc2nc(C)c(C(=O)CC(=O)C(=O)Nc3ccc(Cl)cc3)s2)cc1 | > 100 | – |
| O=S(=O)(O)c1ccc(N=Nc2ccc(N=Nc3c(O)ccc4ccccc34)c(S(=O)(=O)O)c2)cc1 | > 100 | – |
| Cc1occc(=O)c1O | > 100 | – |
| CCC(=O)O[C@H]1CC[C@H]2[C@@H]3CCC4=CC(=O)C=C[C@]4(O)[C@H]3CC[C@]12C | > 100 | – |
| CCN(CC)CCOc1nc2c3ccc(Cl)cc3nn2c2ccccc12 | 7.44 | 2190 |

| Compound | TGI [µM] | GI50 [nM] |
| --- | --- | --- |
| CCc1nnc(CC)n1-n1c(Cc2ccccc2)n[nH]c1=O | > 100 | – |
| COc1ccc2nc(C)cc(NCCCCCCCCCNc3cc(C)nc4ccc(OC)cc34)c2c1 | 11.6 | – |
| O=C(CN1CCN(c2ccccc2)CC1)c1ccc2[nH]c(=O)oc2c1 | > 100 | – |
| O=c1n(N=S(=O)(c2ccccc2)c2ccccc2)c(=O)n2n1C1C=CC2CC1 | > 100 | – |
| NC1=NS(=O)(=O)Nc2nc(-c3ccccc3)c(-c3ccccc3)nc21 | > 100 | – |
| CC1=c2c(oc3cc(O)c(Nc4c(C)cc(O)cc4O)c(C)c23)=CC(=O)C1=Nc1c(C)cc(O)cc1O | > 100 | – |
| COc1ccc(/C=C2\N=C(SC)N(C)C2=O)cc1 | > 100 | – |
| C[C@H](O)CNc1cc(-c2[nH]c3cccnc3c2-c2ccc(F)cc2)ccn1 | > 25 | > 17200 |
| Cc1ccc(NCCN2CCCCC2)c2c(=O)c3ccccc3sc12 | 11.4 | 2170 |
| Cc1ncc(CO)c(C=NCCCCCCN=Cc2c(CO)cnc(C)c2[O-])c1[O-].[Cu+2] | > 100 | – |
| N#Cc1c2nc3ccccc3nc2n2ccccc12 | > 100 | – |
| CC1=C(C(=O)NNC(=O)c2ccccc2)CC(C(=O)NNC(=O)c2ccccc2)=C(C)N1 | > 100 | – |
| COc1ccc2c(c1)OCC1c3cc(O)ccc3OC21 (stereo unspecified) | > 100 | > 100000 |
| N#Cc1cccc(N2C(=O)c3ccc(C(=O)c4ccc5c(c4)C(=O)N(c4cccc(C#N)c4)C5=O)cc3C2=O)c1 | > 100 | – |
| Cc1cn(C2CC(n3cncn3)C(C(C)O)O2)c(=O)[nH]c1=O (stereo unspecified) | > 100 | – |
| O=C1C(=O)c2c(O)ccc(O)c2C(O)=C1Cl | > 100 | – |
| CS(=O)(=O)Nc1ccc(Nc2c3ccccc3nc3cc(N)ccc23)cc1 | 42.5 | 6030 |
| CCOC(=O)c1sc2nc(SC)nc(N3CCCCC3)c2c1N | > 100 | – |
| CC1CCCP(=O)(c2ccccc2)CC1 (stereo unspecified) | > 100 | – |
| Cc1ccccc1C1=C/C(=C(\SS/C(C(=O)c2ccc(OCC(=O)O)c(Cl)c2Cl)=C2\C=C(c3ccccc3C)SS2)C(=O)c2ccc(OCC(=O)O)c(Cl)c2Cl)SS1 | > 100 | – |
| COc1cc(/C=C/c2ccc(/C=C/c3cc(OC)c(OC)c(OC)c3)cc2)cc(OC)c1OC | > 80.8 | – |
| CCCc1cc2c(cc1O)CC[C@@H]1[C@@H]2CC[C@]2(C)[C@@H](O)CC[C@@H]12 | 31 | – |
| O=C(CSc1nccc(=O)[nH]1)c1ccccc1 | > 100 | – |
